The whole screen tested about 310,000 compounds, of which about 14,000 (4.5%) showed an effect of 50% or more. Effects have a minus sign here. This is one part of the list.
The compounds below were run against human ether-à-go-go-related gene (hERG) potassium channel (human, UniProt Q12809) (assay: primary screen, population patch clamp on CHO cells stably expressing hERG).
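Note: peak tail current of the secondary pulse compared with the same well before compound.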

Chain of human ether-à-go-go-related gene (hERG) potassium channel (Q12809 whole entry, looked up): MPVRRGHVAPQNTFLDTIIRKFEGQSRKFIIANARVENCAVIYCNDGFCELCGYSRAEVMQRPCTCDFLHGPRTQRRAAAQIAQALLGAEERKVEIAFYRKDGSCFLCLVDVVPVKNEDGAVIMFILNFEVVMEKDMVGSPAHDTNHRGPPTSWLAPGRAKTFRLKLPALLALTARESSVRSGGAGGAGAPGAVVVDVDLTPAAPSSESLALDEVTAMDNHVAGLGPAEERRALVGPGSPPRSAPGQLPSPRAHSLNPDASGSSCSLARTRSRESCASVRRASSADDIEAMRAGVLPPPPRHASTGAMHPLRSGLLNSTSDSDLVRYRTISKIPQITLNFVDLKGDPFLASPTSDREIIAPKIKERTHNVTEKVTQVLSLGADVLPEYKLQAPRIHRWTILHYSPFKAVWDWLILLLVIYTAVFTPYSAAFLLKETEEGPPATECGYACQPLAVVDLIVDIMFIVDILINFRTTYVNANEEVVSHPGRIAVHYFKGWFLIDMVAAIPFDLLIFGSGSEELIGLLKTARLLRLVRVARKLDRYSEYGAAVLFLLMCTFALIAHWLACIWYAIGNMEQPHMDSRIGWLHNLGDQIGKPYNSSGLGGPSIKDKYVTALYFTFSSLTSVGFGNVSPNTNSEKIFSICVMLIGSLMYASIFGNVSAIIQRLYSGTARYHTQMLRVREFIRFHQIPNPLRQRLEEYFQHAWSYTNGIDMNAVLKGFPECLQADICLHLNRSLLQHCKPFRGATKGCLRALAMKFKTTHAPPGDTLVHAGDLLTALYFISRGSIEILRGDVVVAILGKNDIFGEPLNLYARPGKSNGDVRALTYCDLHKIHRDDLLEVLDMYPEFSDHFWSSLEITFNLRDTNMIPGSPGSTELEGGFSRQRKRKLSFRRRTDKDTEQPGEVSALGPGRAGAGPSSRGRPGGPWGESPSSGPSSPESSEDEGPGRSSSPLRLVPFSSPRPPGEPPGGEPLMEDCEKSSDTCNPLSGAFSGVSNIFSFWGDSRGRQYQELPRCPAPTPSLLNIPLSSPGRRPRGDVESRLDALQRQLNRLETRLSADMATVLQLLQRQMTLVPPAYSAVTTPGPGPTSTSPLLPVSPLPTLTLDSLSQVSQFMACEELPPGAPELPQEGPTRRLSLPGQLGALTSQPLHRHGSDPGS

**Q.** Which “hERG current change (%, negative = inhibition) at 10uM” value does the source give for CCCCNC(=S)N(CCCN(C)C)Cc1cc2cc3c(cc2[nH]c1=O)OCO3 here?
**A.** -20.2%

**Q.** For NC(=O)CC(NC(=O)Cc1cccc2ccccc12)c1ccc(N2CCN(c3ccc(F)cc3)CC2)c([N+](=O)[O-])c1 (stereo not drawn), which “hERG current change (%, negative = inhibition) at 10uM” value is on record?
**A.** -6.46%

**Q.** How did the “hERG current change (%, negative = inhibition) at 10uM” value turn out when COc1ccc(-n2c(C)cc(/C=C3/SC(=S)N(C)C3=O)c2C)cc1 was run?
**A.** 20.7%

**Q.** Nc1cc(C(=O)OCC(=O)NNC(=O)c2cccs2)ccc1Cl was tested. Which “hERG current change (%, negative = inhibition) at 10uM” value did it give?
**A.** -1.27%

**Q.** Which “hERG current change (%, negative = inhibition) at 10uM” value does the source give for COc1ccc(OC)c(Nc2cc(-c3ccccc3)nc(N)n2)c1 here?
**A.** -55.9%

**Q.** With CC1(C(=O)O)C=CC2(CCCCC2)N1C(=O)c1ccccc1 (stereo not drawn) as the compound, how does the “hERG current change (%, negative = inhibition) at 10uM” value read?
**A.** 7.33%

**Q.** For Cc1ccc(-c2nnc(N)o2)cc1, which “hERG current change (%, negative = inhibition) at 10uM” value is on record?
**A.** 9.43%

**Q.** For CCC(=O)Nc1cc(=O)[nH]c2nc(-c3ccc(Cl)cc3)nn12, which “hERG current change (%, negative = inhibition) at 10uM” value is on record?
**A.** 27.2%

**Q.** How did the “hERG current change (%, negative = inhibition) at 10uM” value turn out when COc1ccc(-c2c(C#Cc3ccsc3)c3ccccc3n2C)cc1 was run?
**A.** -6.31%

**Q.** Which “hERG current change (%, negative = inhibition) at 10uM” value does the source give for O=C(Nc1nccs1)C1CC(=O)N(CCc2ccc(F)cc2)C1 (stereo not drawn) here?
**A.** -0.348%

**Q.** CN1CCN(C(=O)COc2ccc3ccccc3c2)CC1 was tested. Which “hERG current change (%, negative = inhibition) at 10uM” value did it give?
**A.** -3.47%

**Q.** O=C(NCCOc1ccccc1)c1ccccc1SCC(=O)N1CCCC1 was tested. Which “hERG current change (%, negative = inhibition) at 10uM” value did it give?
**A.** 14.9%

**Q.** For CCOC(=O)C(=O)c1cn(C2OCC(OC(C)=O)C(OC(C)=O)C2OC(C)=O)c2ccccc12 (stereo not drawn), which “hERG current change (%, negative = inhibition) at 10uM” value is on record?
**A.** 10.3%

**Q.** For COc1ccc(CN2C(=O)c3cccnc3C2=O)cc1S(=O)(=O)N(C)c1ccc(C)cc1, which “hERG current change (%, negative = inhibition) at 10uM” value is on record?
**A.** 16.1%

**Q.** How did the “hERG current change (%, negative = inhibition) at 10uM” value turn out when O=C(NC1CCCC1)C1CC(=O)N(C2CCCCCCC2)C1 (stereo not drawn) was run?
**A.** 0.564%

**Q.** Fc1cccc(/C=N/N=C/c2cccc(F)c2)c1.O was tested. Which “hERG current change (%, negative = inhibition) at 10uM” value did it give?
**A.** 52%

**Q.** With CSc1ccc(CNCc2ccc3c(c2)OCO3)cc1.O=C(O)C(=O)O as the compound, how does the “hERG current change (%, negative = inhibition) at 10uM” value read?
**A.** -46.4%

**Q.** For CCOc1ccccc1C(=O)N(Cc1ccc(C)o1)C1CCS(=O)(=O)C1 (stereo not drawn), which “hERG current change (%, negative = inhibition) at 10uM” value is on record?
**A.** 3.34%

**Q.** How did the “hERG current change (%, negative = inhibition) at 10uM” value turn out when Cc1c(NC(=O)C2CCCN2S(=O)(=O)c2ccccc2)c(=O)n(-c2ccccc2)n1C (stereo not drawn) was run?
**A.** 13.8%

**Q.** CC12CC3(C)CC(C)(C1)CC(C(=O)Nc1nn[nH]n1)(C2)C3 was tested. Which “hERG current change (%, negative = inhibition) at 10uM” value did it give?
**A.** 2.11%

**Q.** Which “hERG current change (%, negative = inhibition) at 10uM” value does the source give for CN(C)c1nc(C(=O)Nc2ccccc2)nc(N(C)C)n1 here?
**A.** 8.15%

**Q.** Which “hERG current change (%, negative = inhibition) at 10uM” value does the source give for CCOc1ccc(/C(O)=C2/C(=O)C(=O)N(c3ccccn3)C2c2ccc(F)cc2)c(C)c1 (stereo not drawn) here?
**A.** 11.8%

**Q.** How did the “hERG current change (%, negative = inhibition) at 10uM” value turn out when O=C(N/N=C/c1ccco1)c1cc(-c2cccc(Br)c2)nc2ccccc12 was run?
**A.** -3.76%

**Q.** With Cc1oc(C(C)(C)C)cc1C(=O)N1CCN(C(c2ccccc2)c2ccccc2)CC1 as the compound, how does the “hERG current change (%, negative = inhibition) at 10uM” value read?
**A.** 5.22%

Source: PMC4336329 (PLoS ONE, 2015)
